Reference: the RNAGym collection of RNA variant scans (doi:10.1093/nar/gkz1192)
The source gives no read counts; variants with many changes may rest on few reads.

B1: CPEB3 Ribozyme (parent)
chain: UAACAGGGGGCCACAGCAGAAGCGUUCACGUCGCAGCCCCUGUCAGAUUCUGGUGAAUCUGCGAAUUCUGCUGUAUAUCUC

Variants of: B1
Experiment: self-cleavage, relative activity (ratio to wild type); higher = more cleavage; in vitro, sequencing
Procedure, shortened: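 CPEB3 self-cleaving ribozyme mutant libraries were made by rounds of error-prone PCR, barcoded, and transcribed in vitro with T7 RNA polymerase for 5 hours at 37°C. Cleavage occurred during transcription and a 15 min DNase I step before EDTA stop. RNAs were reverse transcribed with template switching and Illumina-sequenced, with DNA sequencing mapping barcodes to variants. Relative activity is the variant's cleaved/total read fraction divided by wild type's (minimum 5 reads), averaged across three batches.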
UAACAGGGGGCCACAGCAGGAGCGUUCACGUCGCAGCCCCUGUCAGAUUCUGGUGAAUCUGUGAAUUCUGCUGUAUGUCUC [A20G C62U A77G] gave a self-cleavage of 0.58. UAACAGGGGGCCACAGCAGGAACGUUCGCGUCGCAGCCCCUGUCAGAUUCUGGUGAAUCUGCGAAUCCUGCUGUAUAUCUC [A20G G22A A28G U67C] gave a self-cleavage of 0.09. With UAACAGGGGGCCACAGCAGGAACGUUCACGUCGCAGCCCCUGUCAAAUUCUGGUGAAUCUGCGAAUUCUGCUGUAAAUCUC [A20G G22A G46A U76A] the self-cleavage was 0.18. Variant UAACAGGGGGCCACAGCAGGACCGUUCACGUCGCAGCCCCUGUCAGAUUCUGGUGAAUCUGCGGAUUCUGCUGUAUGUCUC [A20G G22C A64G A77G] has a self-cleavage of 0.07. With UAACAGGGGGCCACAGCAGGACCGUUCACGUCGCAGCCCCUGUCAGAUUCUGGCGAAUCUGCGAAUUCUGCUGUAUGUCUC [A20G G22C U54C A77G] the self-cleavage was 0.17. Variant UAACAGGGGGCCACAGCAGGAGCAUUCACGUCGCAGCCCCUGUCAGGUCCUGGUGAAUCUGCGAAUUCUGCUGUAUAUCUC [A20G G24A A47G U49C] has a self-cleavage of 0.08. In the case of UAACAGGGGGCCACAGCAGGAGCAUUCACGUCGCAGCCCCUGUCAGAUUCUGGUGAAUCUGCGGAUUCUGCCGUAUAUCAC [A20G G24A A64G U72C U80A], the self-cleavage is reported as 0.06. In the case of UAACAGGGGGCCACAGCAGGAGCAUUCACGUCGUAGCCCCUGUCAGAUUCUGGUGAAUCUGCGAAUUCUGCCGUAUAUCUC [A20G G24A C34U U72C], the self-cleavage is reported as 0.11. Variant UAACAGGGGGCCACAGCAGGAGCAUUCACGUCGCAGCACCUGUCAGAUUCUGGUGAAUCUGCGAAUUCUGCUGUAUAUCUC [A20G G24A C38A] has a self-cleavage of 0.09. In the case of UAACAGGGGGCCACAGCAGGAGCAUUCACGUCGCAGCCCCUGUCAGAUUCUGGUGAAUCUGCGAAUUCUGCUGUAUAUUUC [A20G G24A C79U], the self-cleavage is reported as 0.04. For UAACAGGGGGCCACAGCAGGAGCAUUCACGUCGCAGCCCCUGUCAGAUUCUGGCGAAUCUGCGAAUUCUGCUGUAUAUCUC [A20G G24A U54C], the self-cleavage was 0.18. For UAACAGGGGGCCACAGCAGGAGCCUUCACGUCGCUGCCCCUGCCAGAUUCUGGUGAAUCCGCGAAUUCUGCUAUAUAUCUC [A20G G24C A35U U43C U60C G73A], the self-cleavage was 0.27. UAACAGGGGGCCACAGCAGGAGCCUUCACGCCACAGCCCCUGUCAGAUUCUGGUGAAUCUGCGAAUUCCGCUGUAUAUCUC [A20G G24C U31C G33A U69C] gave a self-cleavage of 0.1. For UAACAGGGGGCCACAGCAGGAGCUCUCACGUCGCAGCCCCUGUCAGAUUCUGGGGAAUCUGCGAAUUCUGCUGUAUAUCUC [A20G G24U U25C U54G], the self-cleavage was 0.1. Variant UAACAGGGGGCCACAGCAGGAGCGUUCACAUCGCGGCCCCCGUCAGAUUCUGGUGAAUCUGCGAAUUCUGCCGUUCAUCUC [A20G G30A A35G U41C U72C A75U U76C] has a self-cleavage of 0.06. Variant UAACAGGGGGCCACAGCAGGAGCGUUCACACCGCAGCCCCUGUCAGAUUCUGGCGAAUCAGCGGAUUCUGCUGUAUAUCUC [A20G G30A U31C U54C U60A A64G] has a self-cleavage of 0.07. UAACAGGGGGCCACAGCAGGAGCGUUCACAUCGCAGCCCCCGCCAGAUUCUGGUGAAUCUGCGAAUUCAGCUGUAUAUCUC [A20G G30A U41C U43C U69A] showed a self-cleavage of 0.04. With UAACAGGGGGCCACAGCAGGAGCGUUCACAUCGCAGCCCCUGCCAGAUUCUGGUGAAUCUGCGAAUUCUGCUGUAUAUCUC [A20G G30A U43C] the self-cleavage was 0.11. For UAACAGGGGGCCACAGCAGGAGCGUUCACAUCGCAGCCCCUGUCAGAUGCUGGUGAAUCUGCGAAUUCUGCUGUACAUCUC [A20G G30A U49G U76C], the self-cleavage was 0.08. In the case of UAACAGGGGGCCACAGCAGGAGCGUUCACAUCGCAGCCCCUGUCAGAUUCUGGGGAAUCCGCGAAUUCUGCUGUAUAUCUC [A20G G30A U54G U60C], the self-cleavage is reported as 0.15. Work on UAACAGGGGGCCACAGCAGGAGCGUUCACAUCGCAGCCCCUGUCAGAUUCUGGUGAAUCUGCGAAUUCCGCUGUAUAUCUC [A20G G30A U69C] yielded a self-cleavage of 0.15. UAACAGGGGGCCACAGCAGGAGCGUUCACAUCGCAGCCCCUGUCAGAUUCUGGUGAAUCUGCGAAUUCUGCUGUACAUCUC [A20G G30A U76C] gave a self-cleavage of 0.17. Work on UAACAGGGGGCCACAGCAGGAGCGUUCACAUCGCAGCCCCUGUCAGAUUCUGGUGAAUCUGCGAAUUCUGCUGUAUACCUC [A20G G30A U78C] yielded a self-cleavage of 0.07. In the case of UAACAGGGGGCCACAGCAGGAGCGUUCACCUCGCAGCCCCUGUCAGACUCUGGUGUAUCUGCGAAUUCUGCUGUAUAUCUC [A20G G30C U48C A56U], the self-cleavage is reported as 0.04. In the case of UAACAGGGGGCCACAGCAGGAGCGUUCACUUCGCAGCCCCUGUCAGGUUCUGGUGAAUCUGCGAAUUCUGCUGUAUAUCUC [A20G G30U A47G], the self-cleavage is reported as 0.22. UAACAGGGGGCCACAGCAGGAGCGUUCACGUCACAGCCCCUGUCUGAUUCUGGCGAAUCUGCGAAUUCUGCUGUAUAUCUC [A20G G33A A45U U54C] gave a self-cleavage of 0.11. Work on UAACAGGGGGCCACAGCAGGAGCGUUCACGUCACAGCCCCUGUCAGAUUCUGGUGUAUCCGCGAAUUCUGCUGUAUAUCUC [A20G G33A A56U U60C] yielded a self-cleavage of 0.13. Work on UAACAGGGGGCCACAGCAGGAGCGUUCACGUCACAGCUCCUGUCAGAUUCUGGUGUAUCUGCGGAUUCCGCUGUAUAUCUC [A20G G33A C38U A56U A64G U69C] yielded a self-cleavage of 0.02. In the case of UAACAGGGGGCCACAGCAGGAGCGUUCACGUCACAGCCCCCGUCAGAUUCUGGUGAAUCUGCGAAUUCUGCUGUAUAUCUC [A20G G33A U41C], the self-cleavage is reported as 0.37. For UAACAGGGGGCCACAGCAGGAGCGUUCACGUCACAGCCCCCGUCAGAUUCCGGUGCAUCUGCGAAUUCUGCUGUAUAUCUC [A20G G33A U41C U51C A56C], the self-cleavage was 0.09. In the case of UAACAGGGGGCCACAGCAGGAGCGUUCACGUCACAGCCCCUGUCAGACUCUGGUGAACCUGCGAAUUCUGCUGUAUAUCUC [A20G G33A U48C U58C], the self-cleavage is reported as 0.29. UAACAGGGGGCCACAGCAGGAGCGUUCACGUCACAGCCCCUGUCAGAUGCUGGUGAAUCUGCGAAUUCUGCUGUAUAUCUC [A20G G33A U49G] gave a self-cleavage of 0.18. UAACAGGGGGCCACAGCAGGAGCGUUCACGUCACAGCCCCUGUCAGAUUCAGGUGAAUCUGCGAAUUCCGCUGUAUAUCUC [A20G G33A U51A U69C] showed a self-cleavage of 0.06. With UAACAGGGGGCCACAGCAGGAGCGUUCACGUCACAGCCCCUGUCAGAUUCUGGUGAAUCUGCGAAUUCUGCUGUAUACCCC [A20G G33A U78C U80C] the self-cleavage was 0.09.
